{"source": "paper PMC4336329", "about": "(PLoS ONE, 2015)", "note": "The campaign covered roughly 310,000 compounds. About 2,200 (0.71%) showed an effect of 50% or more. Effects have a minus sign here. The list shows a part of the results.", "data": [{"molecular_target": "human ether-à-go-go-related gene (hERG) potassium channel (human, UniProt Q12809)", "sequence (Q12809 whole entry, looked up)": "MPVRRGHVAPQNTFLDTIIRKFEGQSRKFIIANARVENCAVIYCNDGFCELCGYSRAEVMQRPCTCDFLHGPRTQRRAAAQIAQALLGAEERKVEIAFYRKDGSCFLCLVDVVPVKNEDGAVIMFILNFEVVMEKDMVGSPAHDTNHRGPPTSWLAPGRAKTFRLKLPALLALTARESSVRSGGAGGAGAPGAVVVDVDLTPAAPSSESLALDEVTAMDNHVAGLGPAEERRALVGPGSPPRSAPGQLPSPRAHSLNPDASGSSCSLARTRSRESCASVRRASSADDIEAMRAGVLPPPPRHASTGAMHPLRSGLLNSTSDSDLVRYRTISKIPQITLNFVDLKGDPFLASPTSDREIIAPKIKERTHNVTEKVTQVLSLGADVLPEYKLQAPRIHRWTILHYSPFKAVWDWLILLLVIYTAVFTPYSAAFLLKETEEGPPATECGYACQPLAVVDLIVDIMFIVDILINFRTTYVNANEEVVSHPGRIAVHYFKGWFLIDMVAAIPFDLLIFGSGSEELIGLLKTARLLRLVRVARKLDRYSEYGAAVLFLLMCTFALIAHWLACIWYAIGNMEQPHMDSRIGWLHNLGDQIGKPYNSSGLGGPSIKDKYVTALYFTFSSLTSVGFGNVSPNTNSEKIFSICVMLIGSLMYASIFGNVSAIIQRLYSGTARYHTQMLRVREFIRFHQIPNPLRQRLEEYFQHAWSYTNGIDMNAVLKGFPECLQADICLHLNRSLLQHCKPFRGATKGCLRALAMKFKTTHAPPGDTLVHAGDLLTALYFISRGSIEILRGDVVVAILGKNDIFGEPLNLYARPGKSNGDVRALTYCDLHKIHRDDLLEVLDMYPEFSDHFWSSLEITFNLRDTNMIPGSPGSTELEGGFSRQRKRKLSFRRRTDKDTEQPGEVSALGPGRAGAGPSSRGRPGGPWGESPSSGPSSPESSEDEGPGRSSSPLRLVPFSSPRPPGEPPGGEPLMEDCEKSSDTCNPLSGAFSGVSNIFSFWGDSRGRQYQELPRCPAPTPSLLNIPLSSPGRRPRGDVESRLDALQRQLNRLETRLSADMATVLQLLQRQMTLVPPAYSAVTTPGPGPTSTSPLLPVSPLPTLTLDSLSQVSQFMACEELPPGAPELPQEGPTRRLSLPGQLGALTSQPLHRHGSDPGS", "assay": "primary screen, population patch clamp on CHO cells stably expressing hERG", "units": {"hERG current change (%, negative = inhibition) at 1uM": "%"}, "values": [{"molecule": "COc1ccccc1NS(=O)(=O)c1cccc(C(=O)NNC(=O)c2ccc(=O)[nH]c2)c1", "hERG current change (%, negative = inhibition) at 1uM": 8.79}, {"molecule": "CC(C)(C)c1ccc(C(=O)NCC(=O)N2CCCC2)cc1", "hERG current change (%, negative = inhibition) at 1uM": 17.7}, {"molecule": "CC(OC(=O)CCCc1c[nH]c2ccccc12)C(=O)Nc1ccc(S(N)(=O)=O)cc1", "note": "(stereo not shown)", "hERG current change (%, negative = inhibition) at 1uM": 0.844}, {"molecule": "OCC1(CC2CCCCO2)CCN(Cc2ccccc2-c2ccco2)CC1", "note": "(stereo not shown)", "hERG current change (%, negative = inhibition) at 1uM": 3.52}, {"molecule": "CCOC(=O)N1CCc2c(sc3nc(SC(C)C)n(N)c(=O)c23)C1", "hERG current change (%, negative = inhibition) at 1uM": 4.79}, {"molecule": "Cc1nc(SCCOc2ccccc2)[nH]c(=O)c1Cc1ccccc1", "hERG current change (%, negative = inhibition) at 1uM": 11.5}, {"molecule": "CC(C)Nc1nc(-c2ccccc2)nc(-n2ccnc2)n1", "hERG current change (%, negative = inhibition) at 1uM": -1.93}, {"molecule": "N/C(=N\\OC(=O)c1ccc(Br)o1)c1cccnc1", "hERG current change (%, negative = inhibition) at 1uM": 12.4}, {"molecule": "CC(=C/c1ccccc1)/C=N/n1c(C)n[nH]c1=S", "hERG current change (%, negative = inhibition) at 1uM": 16.3}, {"molecule": "CCOc1cc(-c2cn(S(=O)(=O)c3cccc4nsnc34)nc2N)cc(OCC)c1OCC", "hERG current change (%, negative = inhibition) at 1uM": 3.48}, {"molecule": "COc1cccc(-n2c(O)c(C=NCc3ccc4c(c3)OCO4)c(=O)[nH]c2=O)c1", "hERG current change (%, negative = inhibition) at 1uM": -1.17}, {"molecule": "Cc1ccc(NS(=O)(=O)c2ccc(-c3csc(C)n3)s2)c(C)c1", "hERG current change (%, negative = inhibition) at 1uM": 14.3}, {"molecule": "CN(Cc1ccccc1)C(=O)CN1CCCC1=O", "hERG current change (%, negative = inhibition) at 1uM": 5.46}, {"molecule": "Cc1noc(C(=O)Nc2ccc(C#N)cc2)c1Cl", "hERG current change (%, negative = inhibition) at 1uM": 15.1}, {"molecule": "CCC(c1nnnn1CS(=O)(=O)c1ccc(C)cc1)N1CCN(c2nc3ccccc3s2)CC1", "note": "(stereo not shown)", "hERG current change (%, negative = inhibition) at 1uM": 10}, {"molecule": "Clc1ccc(-c2nnc(-c3ccccc3)o2)c(Cl)c1", "hERG current change (%, negative = inhibition) at 1uM": 0.851}, {"molecule": "CN(C(=O)COC(=O)CN1C(=O)c2cccc([N+](=O)[O-])c2C1=O)c1ccccc1", "hERG current change (%, negative = inhibition) at 1uM": 6.16}, {"molecule": "CC(C)c1ccccc1NC(=S)NCCCn1ccnc1", "hERG current change (%, negative = inhibition) at 1uM": 14.1}, {"molecule": "COc1ccc(-c2csc(N3CCC(c4ccccc4)C3)n2)cc1", "note": "(stereo not shown)", "hERG current change (%, negative = inhibition) at 1uM": 14.7}, {"molecule": "CC(=O)c1ccccc1OCC(=O)Nc1cccc(S(=O)(=O)N2CCCC2)c1", "hERG current change (%, negative = inhibition) at 1uM": 9.57}, {"molecule": "Cc1cc(C)cc(-n2nnnc2-c2cn(C)nc2C(F)(F)F)c1", "hERG current change (%, negative = inhibition) at 1uM": 11.8}, {"molecule": "Clc1cccc(Cl)c1-c1nnc2cccc(Cl)n12", "hERG current change (%, negative = inhibition) at 1uM": -2.05}, {"molecule": "COc1ccc(/C=C/C(=O)c2ccc(OC)cc2OC)cc1", "hERG current change (%, negative = inhibition) at 1uM": 9.96}, {"molecule": "COCc1cc(=O)[nH]c(/N=C(\\N)Nc2ccc(C)cc2C)n1", "hERG current change (%, negative = inhibition) at 1uM": 15.6}, {"molecule": "Cc1nc2ccccc2nc1CSc1nnc(N)s1", "hERG current change (%, negative = inhibition) at 1uM": 7.12}]}]}
